Data as given in the supplement of paper PMC4466236.
The full ranking holds about 33,000 sequences; the median of “E-score (dimensionless, -0.5 to 0.5)” is about -0.058, and the highest 2% start at about 0.35. The list shows a part of the results.

tested on: MvaT; assay: PBM 8-mer E-score (mean of HK and ME arrays) (E-score (dimensionless, -0.5 to 0.5)); higher = stronger relative binding preference; most listed sequences are background and not binding sites
Procedure, shortened: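 Full-length P. aeruginosa MvaT carrying an N-terminal glutathione S-transferase tag was tested by protein binding microarray following a previously described protocol. Two universal double-stranded 60-mer arrays, ME and HK, were used, each with a constant 25-mer primer region and a variable 35-mer region covering all 8-mers. The rank-based E-score is the mean of the two arrays, parsed with a custom script. Its range runs from -0.5 to 0.5 for each 8-mer.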

Sequence | PBM 8-mer E-score
GCCCCTCA | -0.212
ATCAGCGA | -0.101
CTTATGGA | 0.0194
AATAGCTC | 0.0378
ATCGATCG | -0.0319
ATGATGGA | 0.0108
CGACACGC | -0.11
CAAGCTTC | -0.186
ACGGAACA | -0.116
ACCGGCTG | -0.285
GCGACGTA | -0.102
ACCGCGAA | -0.00867
CATACCCC | -0.15
GTTATCAA | 0.171
CTTACTGC | 0.0294
CCAATAAC | 0.207
GCTACGGA | -0.233
CAACACGC | -0.19
CGCCCATC | -0.117
CGTGAGTC | -0.285
ACGCCTAA | -0.105
ACCCCCAA | -0.334
AGACTTCG | -0.204
ACTAATAA | 0.399
CGCGTACG | -0.0728

Sequence | PBM 8-mer E-score
AAACCTCC | -0.167
AGTTCTGC | 0.0769
AGACCTTG | -0.213
CGATCTAG | 0.0189
ACTCCGAT | -0.0513
ATGGGCTC | -0.105
CTAATCCC | -0.0591
CAGGCTGG | -0.163
ATCCCGGC | -0.17
CTATCGGA | -0.0671
AAGCACAC | -0.0919
CTAGACCC | -0.273
ATTTCCGA | 0.168
TGTTTCAA | 0.125
GCAATATA | 0.414
AAGTCTGC | -0.0807
AAAGCGCG | 0.0487
CTGGAGTA | 0.045
CTGTGCGA | -0.103
AAACAGCA | 0.0994
AACAAAGA | 0.275
TGCCAGCA | -0.0639
GTCGTGAA | -0.22
GCGGTACC | -0.107
GAGATCAC | -0.14

Sequence | PBM 8-mer E-score
AGAAGTAC | 0.144
AAAGTAAT | 0.373
AACACACA | 0.187
TGCGCAAA | 0.17
GAATTAGC | 0.0672
TCACAGCA | 0.0394
AGCGACCG | -0.243
CAACAGGG | -0.00285
AACGGCGG | 0.00417
ATAACGAA | 0.341
CCGTACGG | -0.29
AAAGTATA | 0.41
ACAGTGGG | -0.0167
CTTGTTCA | -0.0697
AATAATTG | 0.372
CAAGCACA | -0.179
ACCTCCGC | -0.228
CAGACCAA | -0.055
CAAGGTTA | -0.0496
CGCAATGA | 0.0722
ATCAGTAA | 0.164
CTTCTTCA | -0.0388
GGTCGACC | -0.236
GCAATAGC | 0.0498
GCAAAATA | 0.198

Sequence | PBM 8-mer E-score
CATGCCCG | -0.172
ATGCGTCG | -0.0193
TAAGAATA | 0.265
AATGATAT | 0.21
GTGCCTAA | -0.0518
GACGGCTA | -0.189
AGGGACAT | -0.206
AGAATAAA | 0.255
ACAGAGTG | -0.126
CCTTTAGA | -0.0288
CAACAACG | 0.0584
CCGATAGA | 0.0276
ATCGTGAA | 0.0237
ACGGTATC | -0.216
CAGTAAAA | 0.218
AACGGCCC | -0.241
CCAGAAAA | -0.0593
CTAATGAC | -0.0523
CCGTGGTA | -0.0164
CATCATAA | 0.166
CGACATTC | -0.172
AGAGTACT | 0.133
CAACTTGG | -0.0273
AGGGTGAG | -0.0976
AGGGTGAC | -0.163

Sequence | PBM 8-mer E-score
GACCTTAA | 0.0512
CTATATCC | 0.123
ATATCCTC | 0.0982
CCCTGGCG | -0.342
CTCGTGCC | -0.31
AGGCAATG | 0.0344
ATTCATAA | 0.251
CCGCACAG | -0.019
CGGCAAGC | -0.3
ATAAACTC | 0.269
ACCTATTA | 0.263
ACAAGCCA | -0.127
CAGTATCG | -0.0136
CCATGACA | -0.163
CTGCTGGA | -0.0606
CTGAGCAC | -0.21
AGTCCTGC | -0.267
CCCCCTGC | -0.343
AACTATCT | 0.215
CTATTCGC | 0.00255
GTAATCAA | 0.121
AAGGGGTC | -0.178
GCAGACGC | -0.189
GAGGTACA | -0.151
CTCGTCGA | -0.0694

Sequence | PBM 8-mer E-score
GCCTCCCC | -0.263
AACTGAAT | 0.187
GTAACGTA | 0.104
CTTTATCC | 0.159
ATTGGCTA | 0.0173
AATTCTAG | 0.157
CAAGCAAC | -0.196
ACCGAAGA | -0.00581
CTCGGCAA | -0.0663
AGGATACC | -0.202
AGGCACTA | -0.101
AGCTAGCG | -0.184
ATACGTCC | -0.0038
AATCAATT | 0.246
AAACACGT | -0.000832
AGGTGGAA | -0.00313
CCTATAAG | 0.0158
ACAAGTCG | -0.0351
ACAGATCC | -0.141
AGTTTAGA | 0.197
GACGGGAA | 0.0205
GAAGTCCC | -0.141
TGTACCAA | 0.0155
ACCGGCCG | -0.116
GAACCCAC | -0.119

Sequence | PBM 8-mer E-score
CATTTCTA | 0.0518
AGAGTTGA | 0.00339
AGATTTCG | 0.0192
ATGATACG | 0.00711
CTCTGGCC | -0.204
GTGACCAA | -0.0538
GACGTGCA | -0.104
CCCTACCC | -0.224
GCAAACGC | -0.0755
AGATGACT | -0.0245
AATATTCG | 0.326
AGGCCTCG | -0.272
GCTTTGAC | -0.0823
ACCGGGCC | -0.222
ACCGACAC | -0.0129
AGGTATAC | 0.0641
GACGTATC | -0.141
CAATCTCG | 0.0138
AAGGACGA | -0.241
ATGCTCCA | 0.00382
GAATTCGC | 0.0607
AAAAGAGG | -0.0661
CGACGCCG | -0.301
ACTAACAA | 0.268
TCCAACAA | 0.0903

Sequence | PBM 8-mer E-score
TAGTAGGA | -0.0219
ATCATCAC | 0.0417
CCGTAGCG | -0.231
TAATTGTA | 0.305
AGAACCTC | -0.204
CTGGGGAA | -0.111
CCTCATCC | -0.243
CAGGTAGC | -0.0988
ACACCGTA | -0.052
ACTTCGCA | 0.0386
TCAAGTGA | -0.00408
CTACGGGC | -0.221
AAGCATTA | 0.0777
AATATTGA | 0.327
TCTCAGAA | -0.0828
CAATGCGC | -0.0153
TGGGAAAA | 0.0302
CAGCATTC | -0.0903
ATCTGAAC | 0.0141
ACTTCTGG | -0.0169
AGTCGCTC | -0.255
CCAACATA | 0.285
CAAGTCTG | -0.209
CCCTAAGC | -0.305
CGTGCGCA | -0.0706

Sequence | PBM 8-mer E-score
CAGGGTGA | -0.101
CGATGCTA | -0.067
CATGACAC | -0.13
CGTCTACA | -0.012
AACGGATG | -0.0102
GTTCGGTA | -0.00278
TGGCCGAA | -0.12
CTCTCATA | 0.00755
ACCAAATA | 0.222
CGCCACGA | -0.237
GCCTGCAC | -0.226
ACGCGGGA | -0.148
ACTTTGTG | 0.0749
GTTACATA | 0.273
CTCCATTA | 0.0627
AATATAAT | 0.449
CCGACGAC | -0.128
ACCACAAA | -0.0136
CCTTAGAC | -0.217
AGGCAGCA | -0.0964
AAGGTGAT | 0.0321
CGTGCCAG | -0.247
AACCTCGC | -0.119
CCCTCCAG | -0.283
GACCGAGA | -0.107

Sequence | PBM 8-mer E-score
GTTGCCGA | -0.147
AAGCGTCG | -0.0962
ATCGTCCC | -0.191
AGCCTACT | -0.0958
CCTACGCA | -0.19
GCCATCAA | -0.164
CGTCTTCC | -0.173
TAACTTGA | 0.301
CGATACGA | -0.174
AATAAGAT | 0.356
TAGCGTGA | -0.142
TGGGTACA | -0.183
ATCATTTG | 0.12
GGGTAATA | 0.332
ACTTTTAT | 0.363
CATTGAAG | 0.0846
TTAGCGAA | 0.099
CGGCTCGC | -0.291
CCCTACTA | -0.0833
GATATGTA | 0.282
CAGCAAAC | 0.014
ATCTACAC | 0.0272
CCCGATAG | -0.0101
ACTTTGTA | 0.192
CGGCCTAC | -0.258

Sequence | PBM 8-mer E-score
CGTTATGC | 0.0725
CTTACTGA | 0.0745
CAATTCCA | 0.0822
ACAAAAAG | 0.0621
CCCCTACC | -0.348
CGATGCTC | -0.217
TCACTGCA | -0.0296
TAAACGGA | 0.205
AGCCACAG | -0.247
GAAGTAGA | -0.0544
ACAAGCAT | 0.0341
ATGCTGAC | -0.154
CTGCACTA | 0.0832
AGGCATAA | -0.0265
CAATATAG | 0.331
AAGTCCGT | 0.0247
GGTTTAAA | 0.31
ACGTCGAA | -0.0575
CAGAAAGC | -0.192
ATTGTCTG | -0.0259
ATGGTCGG | -0.129
AGTACCGC | -0.108
GTGCACAA | 0.00028
CCGACCAC | -0.194
AGCGCAAT | 0.0659

Sequence | PBM 8-mer E-score
CTGAATTA | 0.266
CTGCTAGC | -0.254
AAATTACT | 0.308
AACCAGAA | 0.0236
GAAAGTGA | 0.135
ACTAGGAC | -0.057
AACTCTGA | 0.116
AGATCTTG | -0.0529
GGGCAGAA | -0.0135
GCAGAGGC | -0.156
AAATAACG | 0.331
ATCGCCTG | -0.215
CGGGCGAG | -0.295
AGACGCAA | -0.111
CTCGTAGC | -0.0559
ATCTGTTC | 0.0393
CACTTTAG | 0.0627
ATTGAGAC | 0.054
GGATGTAA | 0.234
GGATTCTA | -0.0779
ATCGCAGG | -0.166
AGCAGATC | -0.0539
ATATTTGC | 0.351
GAGCGTGC | -0.295
AGACTTGA | -0.116

Sequence | PBM 8-mer E-score
GCATGCGC | -0.15
AGTACAAT | 0.277
AACACGCA | 0.143
CGTCTCCC | -0.168
TGTTGGAA | 0.136
CATGCCCC | -0.105
GGCTCAAC | -0.195
AGCGGGTA | 0.019
CCGAAATC | -0.112
CGTCTTAC | -0.157
CCCTTACG | -0.219
TGTGCAAA | 0.0191
CATATCTA | 0.122
AAACCGAG | -0.106
ATGACACG | -0.12
AGCGTCGC | -0.197
AGGACGGA | -0.0832
GCATAATA | 0.339
AAGCAGGG | -0.135
CCGGGCGA | -0.287
AGTGTAAT | 0.308
CACTAAAC | 0.0791
AAACGGCG | 0.0664
ACAATTTG | 0.187
AAACTGTA | 0.136

Sequence | PBM 8-mer E-score
GGTGGGGA | -0.301
CTGTCCAC | -0.113
AAATATAA | 0.442
CCACGAGG | -0.227
ACTACAGC | 0.0459
TCCGGAAA | -0.0987
CGCACCCG | -0.242
TCGACGAA | -0.14
GTTAGGAA | -0.0188
GCCAGCAC | -0.16
CAACTACC | 0.132
CGAGCGCA | -0.0636
TAGACGCA | 0.0756
ACTTAAAC | 0.244
ATGCCCGC | -0.155
CACATGAG | -0.0967
CATGAAAG | 0.155
CATACGGA | 0.0185
CCGGGCGC | -0.153
